Assay results published in PubChem BioAssay AID624417 (National Center for Advancing Translational Sciences (NCATS), 2012).
Hit rate of the full screen: of about 410,000 compounds, about 6,400 (1.6%) were called active. The inconclusive results got no clear call from the source; some entries with a clear call stand among them for comparison. The call rests on the fitted dose curve; in most records, active means well fitted inhibition curve with a large enough effect; inconclusive means small, poorly fitted or top-dose-only effect; inactive means no such curve, though single readings can be large or run the other way. Potencies of inconclusive entries are left out as doubtful fits.
Further: nearly all actives have a fitted effect of over 55% in size.
Potency means the concentration at half of the fitted maximal effect; tags describe the fitted curve by direction and shape.

The molecules below were run against Glucagon-like peptide 1 receptor (Homo sapiens) (UniProt P43220) (assay: qHTS of GLP-1 Receptor Inverse Agonists (Inhibition Mode)). Details: HEK293 GLP-1R CRE-luciferase, luminescence, 24 h, GLP-1R form is constitutively active; series mostly up to 38.3 µM.
Sequence of UniProt P43220 (P43220 whole entry, looked up): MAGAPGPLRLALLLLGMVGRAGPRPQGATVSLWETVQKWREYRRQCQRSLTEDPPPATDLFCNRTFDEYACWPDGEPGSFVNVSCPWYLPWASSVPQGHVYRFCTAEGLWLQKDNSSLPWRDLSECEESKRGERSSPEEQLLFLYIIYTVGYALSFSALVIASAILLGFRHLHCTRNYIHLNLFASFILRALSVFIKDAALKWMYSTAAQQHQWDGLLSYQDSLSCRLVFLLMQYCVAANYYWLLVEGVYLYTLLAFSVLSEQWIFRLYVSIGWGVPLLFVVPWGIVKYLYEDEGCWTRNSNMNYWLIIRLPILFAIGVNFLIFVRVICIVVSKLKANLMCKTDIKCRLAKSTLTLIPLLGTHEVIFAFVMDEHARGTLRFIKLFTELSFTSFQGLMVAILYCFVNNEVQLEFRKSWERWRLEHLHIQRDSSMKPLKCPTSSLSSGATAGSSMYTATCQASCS
Method in brief: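 Seeding at 200 cells/uL, 12 h culture, 24 hr compound treatment, then luciferase reagent and a luminescence read; cells are HEK293 stably expressing a constitutively active GLP-1R plus cAMP-responsive luciferase.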
In the case of Cc1nn2c(=O)cc(COC(=O)c3cccc(NC(=O)COc4ccccc4C)c3)nc2s1, the Potency is reported as inconclusive [inhibitor, full curve, poor fit]. With O=C(CNC1CCCCC1)Nc1ccc(S(=O)(=O)N2CCCCC2)cc1 the Potency was inconclusive [inhibitor, partial curve, poor fit]. For O=[N+]([O-])c1ccc(Cl)cc1CN1CCCCCC1, the Potency was “inactive”. With O=C(Nc1nc(-c2nc3ccccc3s2)cs1)C1CC1 the Potency was inconclusive [inhibitor, single point]. CN1CCN(C(=O)C(=O)Nc2c3c(nn2-c2ccc(Cl)cc2)CSC3)CC1 was tested, and the Potency was “inactive”. In the case of COCCC1CCCCN1C(=O)c1cc(COc2ccc(-n3cncn3)cc2)on1 (configuration not stated), the Potency is reported as “inactive”. In the case of Cc1cc(-c2nn(-c3ccccc3F)cc2CN2CCN(c3ccncc3)CC2)c(C)s1, the Potency is reported as inconclusive [inhibitor, partial curve, poor fit]. Cc1cccc(NC(=S)N2CCN(S(=O)(=O)c3cccc(F)c3)CC2)c1 was tested, and the Potency was inconclusive [inhibitor, single point]. C/C(=N\N1C(=O)c2ccccc2NC1c1ccccc1)c1ccccc1O (configuration not stated) was tested, and the Potency was inconclusive [inhibitor, full curve, poor fit]. With Cc1cc(NC(=O)CSc2nc3ccsc3c(=O)n2CCCC(=O)NCCc2ccccc2)no1 the Potency was inconclusive [inhibitor, partial curve]. With COc1ccc(C2=NN(C(=O)CSc3nc4ccccc4s3)C(c3ccc(F)cc3)C2)cc1 (configuration not stated) the Potency was inconclusive [inhibitor, partial curve, poor fit]. With Cc1c(C(=O)N2CCC(C)CC2)c(S(=O)(=O)N(Cc2ccccc2)C(C)(C)C)c(C)n1C the Potency was “inactive”. In the case of Cc1nc(NC(=O)c2ccc(F)cc2)sc1C(=O)Nc1ccc2c(c1)CCC2, the Potency is reported as inconclusive [inhibitor, partial curve, poor fit]. For CC1(C(=O)Nc2ccc3c(c2)OCO3)CCN1Cc1ccccc1OC(F)F (configuration not stated), the Potency was inconclusive [inhibitor, partial curve, poor fit]. With CCOc1ccc(OCC)c(-c2c(=O)n(OCc3ccccc3Br)c3ccccc3[n+]2[O-])c1 the Potency was inconclusive [inhibitor, single point]. In the case of CO/N=C/c1ccc(N2CCN(C(=O)c3ccc(C)cc3)CC2)c([N+](=O)[O-])c1, the Potency is reported as “inactive”. O=C(c1ccc([N+](=O)[O-])cc1)N1CCC(Cc2ccccc2)CC1 was tested, and the Potency was inconclusive [inhibitor, single point].
